Test results: PubChem BioAssay AID1159614 (National Center for Advancing Translational Sciences (NCATS), 2016)
The campaign covered roughly 45,000 compounds. About 65 (0.1%) were called active. Calls come from the whole dose curve; as a rule, active = well fitted activation curve with a large enough effect; inconclusive = small, poorly fitted or top-dose-only effect; inactive = no such curve, though single readings can be large or run the other way. The list shows a part of the results.

What follows are compounds tested against Galactocerebrosidase (Homo sapiens) (UniProt P54803) (assay: A Novel Cell-Based Assay to Identify Small Molecules for B -Galactocerebrosidase). Conditions: 145M-Twi-hGALC-G270D cells (Twitcher mouse brain line with human GALC G270D), HMU-beta-Gal fluorescence, 48 h; series mostly up to 57.5 µM; activation: at the top concentration.
UniProt P54803, sequence (P54803 whole entry, looked up): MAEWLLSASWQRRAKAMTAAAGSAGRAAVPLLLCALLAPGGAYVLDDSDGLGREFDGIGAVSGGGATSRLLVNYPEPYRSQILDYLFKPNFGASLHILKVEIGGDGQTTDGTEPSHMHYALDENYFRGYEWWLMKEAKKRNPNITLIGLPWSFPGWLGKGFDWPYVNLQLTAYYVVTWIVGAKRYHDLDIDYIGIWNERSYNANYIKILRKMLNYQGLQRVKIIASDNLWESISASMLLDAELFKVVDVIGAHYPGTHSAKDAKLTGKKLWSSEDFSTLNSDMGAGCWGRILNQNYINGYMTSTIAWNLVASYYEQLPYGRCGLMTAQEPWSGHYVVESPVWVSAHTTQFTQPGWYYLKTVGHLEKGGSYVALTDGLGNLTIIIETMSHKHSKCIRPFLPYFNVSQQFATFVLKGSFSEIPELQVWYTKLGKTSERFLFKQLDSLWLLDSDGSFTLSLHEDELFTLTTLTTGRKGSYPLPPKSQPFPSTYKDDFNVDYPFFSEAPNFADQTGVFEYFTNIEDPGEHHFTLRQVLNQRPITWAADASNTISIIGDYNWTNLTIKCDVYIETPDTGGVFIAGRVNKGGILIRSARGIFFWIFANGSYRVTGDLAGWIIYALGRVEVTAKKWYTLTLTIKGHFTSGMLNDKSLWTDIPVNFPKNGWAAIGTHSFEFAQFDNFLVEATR
Method in brief: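 Fluorescence readout: HMU-β-gal cleavage by mutant GALC (0.1 mM final, citrate/phosphate pH 5.2 with 1 mg/mL taurocholate), stopped with carbonate/bicarbonate plus Triton X-100. Cells: murine Twitcher 145M-Twi expressing human G270D GALC; qHTS for activators.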
Note: 0% is about no effect; nearly all actives have a fitted effect of over 65% in size.

activation, inactive:
Cc1ccc(C(C)C)c(OCC(O)CN2CCN(c3ccccc3F)CC2)c1 (configuration not stated) -2%, Cc1cccc(NC(=O)CSc2nc(-c3ccccc3)cc(=O)[nH]2)c1C -6.35%, CCOc1ccc(CCNC(=O)CN2C(=O)COc3ccc(S(=O)(=O)N4CCCC4)cc32)cc1 -13%, Cc1ccc(S(=O)(=O)N(CC(=O)Nc2ccc(Cl)cc2Cl)c2ccccc2C)cc1 -21%, COc1ccccc1C(=O)Nc1cccc(C(=O)OCc2cc(=O)n3ccsc3n2)c1 -20.8%, Cc1ccc(CNC(=O)C(C)n2nc(C)n3c(cc4sccc43)c2=O)cc1 (configuration not stated) -16.5%, CCOC(=O)C1CCCN(C(=O)c2ccc3c(c2)sc2nc(-c4ccc(CC)cc4)cn23)C1 (configuration not stated) -2.18%, Cc1oc(-c2ccc(C(=O)NCc3cccc(F)c3)cc2)nc1COc1ccccc1 -12.9%, COC(=O)c1ccc2c(=O)n(CCCCCC(=O)NCCc3ccc(Cl)cc3)c(=O)[nH]c2c1 -24%, CCOC(=O)c1ccc(N2C(=O)c3n[nH]c(-c4ccco4)c3C2c2cccc(OC)c2)cc1 (configuration not stated) -2.57%, Cc1ccccc1NC(=O)CSc1nc2ccccc2c2nc(CCn3cncc3C)nn12 -15.5%, CCn1c(C(=O)N2CCC(C(=O)NCCc3ccc(C)cc3)CC2)cc2sccc21 -15.5%, Cc1ccc(Cn2ccnc2SCC(=O)NCc2ccccc2Cl)cc1 5.2%, N#Cc1c(C(F)(F)F)cc(-c2ccc(F)cc2)nc1SCC(=O)Nc1ccccc1 -18.4%, O=C1CC(c2nc(-c3ccccc3)no2)CN1c1ccccc1 (configuration not stated) -2.15%, CCOc1ccc(N2CC(c3nc4ccccc4n3CCOc3ccccc3OC)CC2=O)cc1 (configuration not stated) -20.6%, CCc1nc2ccc(C(=O)NCc3cc(OC)ccc3OC)cc2nc1CC -13.6%, COC(=O)c1nc(Cl)c(Cl)nc1N -15.2%, Cc1cccc(NS(=O)(=O)c2ccc3c(c2)CC(C)N3C(=O)C2CCC2)c1C (configuration not stated) -11.5%, O=C(CCS(=O)(=O)c1ccc(Br)cc1)Nc1ccc(F)cc1F -3.65%, CCc1ccc(CNc2ccc3c(c2)ncn3C(C)(C)C)cc1 -15.4%, Cc1ccc(-c2nc3ncccn3c2Nc2ccc3c(c2)OCCO3)cc1 -6.13%, COc1cccc2c1cc1c(=O)n(CC(=O)N3CCN(c4ccccc4)CC3)nc(C)n12 -4.37%, Cc1cc(OC(C)C(=O)Nc2cccc(-c3nc4ccccc4o3)c2)cc(C)c1Cl (configuration not stated) 0.233%, Cc1ccc(Cn2c(C)c3cnn(CC(=O)NCc4ccccc4)c(=O)c3c2C)cc1 0.961%, CC(=O)N1CCc2cc(S(=O)(=O)CCC(=O)Nc3ccc(C)cc3Br)ccc21 -14.5%, CCN(CC)c1ccc(NC(=O)c2cnn(-c3ccccc3)c2-n2cccc2)c(C)c1 -10.9%
